From US20260234232A1 (QUAERITE BIOPHARM RESEARCH BEIJING, published 2026) come the findings set out here.

Residue numbers refer to the chain shown, from its start.

In test [1] the target is T1, human VEGFA165 (human, UniProt P15692-4 27-191).
T1 construct: Bought protein from two suppliers, treated as one molecule; the supplier is named under assay; also called antigen VEGFA
T1 sequence (looked up): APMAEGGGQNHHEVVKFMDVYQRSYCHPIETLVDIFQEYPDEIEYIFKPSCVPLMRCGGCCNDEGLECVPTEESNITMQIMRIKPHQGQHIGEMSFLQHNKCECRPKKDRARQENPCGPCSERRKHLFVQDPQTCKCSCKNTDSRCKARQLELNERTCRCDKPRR
Kind of test: SPR Biacore 8K, VEGFA165 (Sino Biological) on CM5, low immobilization, 1:1 fit. How it is done: (§1) In a multi-cycle mode, the chip was regenerated with 100 mM hydrochloric acid.

Test [2] deals with T1, human VEGFA165. Kind of test: ELISA, coated human VEGFA165, anti-human IgG detection. How it is done: The absorbance at 450 nm (OD450) was measured using a microplate reader.
Test [3] has as its target T1, human VEGFA165. Kind of test: SPR Biacore 8K, fusion protein captured on Protein A chip, VEGFA165 (GenScript) analyte, 1:1 fit.
The target in test [4] is T1, human VEGFA165. Kind of test: ELISA, coated human VEGFA165, anti-His detection. How it is done: Antigen human VEGFA165 (label-free, purchased from Sino Biological, Cat. No.: HPLC-10008-HNAH, hereinafter referred to as VEGFA) was diluted with ELISA coating buffer to a final concentration of 0.3 μg/mL and added to a microplate at 100 μL/well for coating at 4° C. overnight. […] The solution used for antibody dilution was PBS containing 0.1% Tween-20 (pH 7.4), i.e., PBST. After being incubated at 37° C. for 1 h, the microplate was washed 3 times with PBST, and a dilution of His-Tag murine monoclonal antibody (purchased from Proteintech, Cat. No.: 66005-1-Ig) was added. The plate was further incubated at 37° C. for 1 h and washed again. Subsequently, a dilution of HRP-labeled goat anti-mouse IgG antibody (HRP-conjugated Affinipure Goat Anti-Mouse IgG (H+L), purchased from Proteintech, Cat. No.: SA00001-1) was added, and the plate was incubated at room temperature for 45 min. After the plate was washed, 100 μL of TMB (purchased from Tiangen Biotech, Cat. No.: PA107-01) was added to each well for color development at 37° C. for 15 min, followed by the addition of 50 μL of stopping solution. The absorbance at 450 nm (OD450) was measured using a microplate reader.

The target in test [5] is T1, human VEGFA165. Kind of test: cell-based or functional assay.
The target of test [6] is T1, human VEGFA165. Kind of test: cell-based or functional assay. This is another data set of the same source.
The target in test [7] is T1, human VEGFA165. Kind of test: SPR, KD of Tables 23 and 24 against aflibercept. The method, then: as §1
The target in test [8] is T1, human VEGFA165. Kind of test: SPR Biacore 8K, VEGFA165 (GenScript) on CM5, low immobilization, 1:1 fit.
Test [9] deals with T2, Mouse VEGFA164 (mouse, UniProt Q00731-2 27-190).
T2 construct: Bought
T2 sequence (looked up): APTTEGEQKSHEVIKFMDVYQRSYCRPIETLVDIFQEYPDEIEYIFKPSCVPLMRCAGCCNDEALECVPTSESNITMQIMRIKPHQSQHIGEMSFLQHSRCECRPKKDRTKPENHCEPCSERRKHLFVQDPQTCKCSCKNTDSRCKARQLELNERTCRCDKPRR
Kind of test: ELISA, coated mouse VEGFA164, anti-human IgG detection.

In test [10] the target is T3, Rat VEGFA164 (rat, UniProt P16612-2 27-190).
T3 construct: Bought
T3 sequence (looked up): T2 sequence (looked up) with S10A, I14V, I75V
Kind of test: ELISA, coated rat VEGFA164, anti-human IgG detection.

Test [11] addresses T4, Rabbit VEGFA121 (rabbit).
T4 construct: Expressed in 293F cells with its own signal peptide, purified on Ni beads
T4 chain: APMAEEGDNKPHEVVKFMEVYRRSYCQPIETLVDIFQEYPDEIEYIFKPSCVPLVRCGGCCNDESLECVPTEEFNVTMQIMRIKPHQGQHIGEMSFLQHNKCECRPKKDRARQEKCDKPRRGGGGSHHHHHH
Kind of test: ELISA, coated rabbit VEGFA121, anti-human IgG detection.

In test [12] the target is T1, human VEGFA165. Kind of test: ELISA, coated human VEGFA165, anti-human IgG detection. The source holds these as a separate data set.

B1: 2V1-SA1-NL-Fc (Fc fusion)
chain: EVQLVESGGGLVQPGGSLRLSCAVSGRTFSSYTMGWFRQAPGKEREFVVAISKGGYKYDSVSLEARFTISRDNAKNTVYLQMNSLRPEDTAVYYCAATRAYGSSRLRLADTYEYWGQGTLVTVSSEVQLVESGGGLVQPGGSLRLSCAVSGRTFSSYTMGWFRQAPGKEREFVVAISKGGYKYDSVSLEARFTISRDNAKNTVYLQMNSLRPEDTAVYYCAATRAYGSSRLRLADTYEYWGQGTLVTVSS[letters of human IgG1 Fc omitted]
notes: Protein A purified
For the molecule B1, in test [1], the Kd was 0.00353 nM, the off-rate (koff) was 4.55e-05 s⁻¹ and the on-rate (kon) turned out to be 1.29e+07 M⁻¹ s⁻¹. Moreover, the EC50 in test [2] was determined as 0.16 nM.

B2: 2V13-4m-NL-Fc (Fc fusion)
chain: B1 chain with V24A, S30T, S60A, A97G, V149A, S155T, S185A, A222G
notes: Protein A purified
For the molecule B2, the EC50 in test [2] worked out at 0.13 nM. In other words, the sub-nanomolar range.

B3: 2V1-DP-9GS-Fc (Fc fusion)
chain: EVQLVESGGGLVQPGGSLRLSCAVSGRTFSSYTMGWFRQAPGKEREFVVAISKGGYKYDSVSLEARFTISRDNSKNTVYLQMNSLRPEDTAVYYCAATRAYGSSRLRLADTYEYWGQGTLVTVSSGGGGSGGGSEVQLVESGGGLVQPGGSLRLSCAVSGRTFSSYTMGWFRQAPGKEREFVVAISKGGYKYDSVSLEARFTISRDNSKNTVYLQMNSLRPEDTAVYYCAATRAYGSSRLRLADTYEYWGQGTLVTVSS[letters of human IgG1 Fc omitted]
notes: Protein A purified
Consider B3, for which a half-maximal response in test [2] (EC50) required 0.11 nM.

B4: V1-SA1-Fc-m1 (Fc fusion)
chain: EVQLVESGGGLVQPGGSLRLSCAVSGRTFSSYTMGWFRQAPGKEREFVVAISKGGYKYDSVSLEARFTISRDNAKNTVYLQMNSLRPEDTAVYYCAATRAYGSSRLRLADTYEYWGQGTLVTVSS[letters of human IgG1 Fc with changes omitted]
As to B4, in test [3], the Kd came out at 0.148 nM, the koff came out at 0.00013 s⁻¹ and the kon was determined as 877000 M⁻¹ s⁻¹.

B5: V15-9GS-PPCP-Fc (Fc fusion)
chain: QLQLVESGGGSVQPGGSLRLSCEVSGRTFASYTMGWFRQAPGKEREFVVAISKGGYKYDSVSLEARFTISKDNTKNTVYLQMNSLKPEDTAVYYCAGTRAYGSSRLRLAETYEYWGQGTQVTVSSGGGGSGGGS[letters of human IgG1 Fc omitted]
notes: Monovalent nanobody-Fc fusion, dimer through Fc
Consider B5, for which the EC50 in test [4] came out at 0.35 nM.

B6: 2V1-3m-3GS-Fc (Fc fusion)
chain: EVQLVESGGGLVQPGGSLRLSCAASGRTFSSYTMGWFRQAPGKEREFVVAISKGGYKYDSVSLEARFTISRDNAKNTVYLQMNSLRPEDTAVYYCAATRAYGSSRLRLADTYEYWGQGTLVTVSSGGSEVQLVESGGGLVQPGGSLRLSCAASGRTFSSYTMGWFRQAPGKEREFVVAISKGGYKYDSVSLEARFTISRDNAKNTVYLQMNSLRPEDTAVYYCAATRAYGSSRLRLADTYEYWGQGTLVTVSS[letters of human IgG1 Fc omitted]
notes: Protein A purified
On to B6, for which, in test [2], the EC50 came out at 0.11 nM.

B7: 2V30-2H-2m-3GS-Fc (Fc fusion)
chain: B6 chain with S60A, A74S, D110K, S188A, A202S, D238K
notes: Protein A purified
As for B7, the half-maximal effective concentration (EC50) in [2] turned out to be 0.15 nM.

B8: 2V1-DP-3GS-Fc (Fc fusion)
chain: B6 chain with A24V, A74S, A152V, A202S
notes: Protein A purified
Consider B8, for which, in test [1], the Kd is 0.00384 nM, the off-rate constant (koff) was found to be 4.38e-05 s⁻¹ and the kon is 1.14e+07 M⁻¹ s⁻¹. In test [2], this molecule yielded a concentration for a half-maximal effect (EC50) of 0.14 nM.

B9: 2V1-2m-3GS-Fc (Fc fusion)
chain: B6 chain with A74S, A202S
notes: Protein A purified
As to B9, the EC50 in test [2] was found to be 0.14 nM.

B10: 2V1-SA1-3GS-Fc (Fc fusion)
chain: B6 chain with A24V, A152V
notes: Protein A purified
Turning to B10, the “HUVEC proliferation inhibition IC50” value in [5] came out at 0.38 nM. The “IC50 for inhibiting HUVEC proliferation, ratio to aflibercept” value in test [6] is about 0.5 fold. Moreover, the “KD as a fraction of aflibercept's KD” value in [7] is about 0.083 fold. The figures for the Kd in test [8] and in [1] were 0.00468 nM and 0.00683 nM, respectively. Moreover, the koff was 3.95e-05 s⁻¹ in test [8] and 6.88e-05 s⁻¹ in [1]. For the same molecule, the kon in test [8] worked out at 8.44e+06 M⁻¹ s⁻¹; in test [1], 1.01e+07 M⁻¹ s⁻¹. The binding result in test [9] and in test [10] was “no binding” throughout. Besides, the EC50 in test [2] was found to be 0.13 nM; in [11] it was 23.7 nM; in test [12], 0.14 nM.

B11: 2V15-4m-3GS-Fc (Fc fusion)
chain: B6 chain with S30A, A97G, D110E, S158A, A225G, D238E
notes: Protein A purified
B11 showed an EC50 in [2] of 0.17 nM.
